Laboratory results from the supplement of paper PMC12217912.
The list shows a part of the results. The full chains were built here from the parent and the listed change. Values near 0.05 are background.

B1: TEV protease; numbered along this chain (parent)
chain: MGESLFKGPRDYNPISSSICHLTNESDGHTTSLYGIGFGPFIITNKHLFRRNNGTLVVQSLHGVFKVKDTTTLQQHLVDGRDMIIIRMPKDFPPFPQKLKFREPQREERICLVTTNFQTKSMSSMVSDTSCTFPSGDGIFWKHWIQTKDGQCGSPLVSTRDGFIVGIHSASNFTNTNNYFTSVPKNFMELLTNQEAQQWVSGWRLNADSVLWGGHKVFMVKPEEPFQPVKEATQL

Variants of: B1
Assay: raw area under fraction-flipped curve 0-4 h after induction (AUC4h, not background-subtracted), DNA-recorder readout of cleavage of the substrate (dimensionless); higher = more cleavage of the substrate by the protease variant
Conditions: temperature: 34 °C; time window: 0-4 h after rhamnose induction
Procedure: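 In vivo DNA recorder in E. coli TOP10(DE3) ΔrhaA at 34 °C. Each TEVp single-site mutant (parent TEVp 0) is paired with a single-site variant of the 7-mer TEVs (canonical ENLYFQ|S). The substrate sits between flexible linkers in a Bxb1-sfGFP-TEVs-SsrA fusion, so cleavage stabilises Bxb1 and speeds flipping of a recombination array, read by NGS. The value is the raw area under the fraction-flipped curve over 0-4 h after rhamnose induction (AUC4h), with ≥20 reads per time point. It is not background-subtracted; inactive controls average about 0.047.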
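Also: Bxb1 expression induced with 0.2% (w/v) L-rhamnose at OD600 near 0.5, cultures sampled hourly, flipped fraction per protease–substrate barcode pair counted by paired-end Illumina sequencing.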

Row | Variant | area with substrate EALYFQS | area with substrate ECLYFQS | area with substrate EDLYFQS | area with substrate EILYFQS | area with substrate EKLYFQS | area with substrate ELLYFQS | area with substrate EMLYFQS | area with substrate EPLYFQS | area with substrate EQLYFQS | area with substrate ERLYFQS | area with substrate ESLYFQS | area with substrate EVLYFQS | area with substrate EYLYFQS | area with substrate EWLYFQS | area with substrate EELYFQS | area with substrate EHLYFQS | area with substrate ETLYFQS | area with substrate EFLYFQS | area with substrate EGLYFQS
1 | R106E | 0.0483 | 0.0989 | 0.142 | 0.11 | 0.092 | 0.089 | 0.119 | 0.109 | 0.132 | 0.098 | 0.115 | 0.0978 | 0.177 |  |  |  |  |  | 
2 | R106S | 0.148 | 0.0949 |  | 0.098 | 0.111 | 0.115 |  |  | 0.112 | 0.0708 | 0.0984 | 0.11 | 0.0953 | 0.0856 |  |  |  |  | 
3 | E107L | 0.125 |  |  |  |  |  |  |  | 0.109 | 0.066 | 0.0906 | 0.0839 |  |  | 0.0999 | 0.0887 |  |  | 
4 | R109L | 0.122 |  | 0.117 | 0.112 | 0.0985 |  | 0.113 | 0.121 | 0.124 | 0.106 |  | 0.124 | 0.0933 |  | 0.117 |  | 0.093 |  | 
5 | I110K | 0.0573 | 0.0481 |  |  | 0.0601 | 0.046 | 0.0499 | 0.0567 | 0.0442 | 0.12 | 0.0543 |  |  | 0.0559 | 0.0478 | 0.0559 |  | 0.0234 | 0.0633
6 | I110N | 0.0614 | 0.0615 |  | 0.047 | 0.051 | 0.0844 |  | 0.0573 | 0.0565 |  |  | 0.0477 | 0.0431 |  | 0.0386 | 0.0547 | 0.0536 |  | 0.0526
7 | C111D | 0.0735 | 0.0584 |  | 0.0542 | 0.0522 |  | 0.063 |  |  |  | 0.063 | 0.0608 | 0.0851 | 0.0548 | 0.0688 | 0.0591 | 0.0682 | 0.0785 | 0.0693
8 | C111H | 0.0799 |  |  | 0.0983 |  |  | 0.144 |  | 0.111 |  | 0.12 | 0.11 | 0.104 | 0.0888 | 0.114 |  | 0.106 |  | 
9 | V113M | 0.0947 |  |  | 0.0894 | 0.112 | 0.0791 | 0.102 |  | 0.11 | 0.0926 | 0.094 |  | 0.101 |  |  | 0.113 | 0.0999 | 0.0881 | 0.0961
10 | V113S | 0.0719 |  | 0.0799 | 0.0732 | 0.0897 |  | 0.0566 | 0.072 |  | 0.0696 | 0.0735 | 0.0698 | 0.0606 | 0.0598 | 0.0829 |  |  |  | 0.0657
11 | T114R | 0.135 | 0.122 |  | 0.091 | 0.127 | 0.0968 | 0.118 |  |  | 0.113 | 0.112 | 0.111 |  | 0.0917 |  |  | 0.141 |  | 
12 | T115Y | 0.126 | 0.0458 |  | 0.13 | 0.136 | 0.0743 | 0.13 | 0.0896 | 0.119 | 0.0948 | 0.0792 | 0.111 |  |  |  |  | 0.126 |  | 0.106
13 | N116L | 0.125 | 0.0919 |  |  |  |  | 0.0937 |  | 0.0635 |  | 0.123 | 0.0727 |  |  | 0.0975 |  |  |  | 
14 | N116P | 0.121 | 0.0827 |  | 0.0866 | 0.0981 |  | 0.116 | 0.117 | 0.109 | 0.137 | 0.0988 | 0.103 |  |  |  |  |  |  | 
15 | N116Y | 0.117 | 0.0779 | 0.106 | 0.0911 |  |  | 0.124 | 0.0974 | 0.15 | 0.0856 | 0.0963 |  |  |  |  |  |  |  | 0.106
16 | F117E | 0.148 | 0.108 |  |  | 0.103 | 0.0779 |  |  | 0.112 | 0.0914 | 0.101 |  | 0.0887 |  | 0.146 | 0.104 | 0.094 |  | 0.0894
17 | Q118Y | 0.124 | 0.108 |  | 0.0687 | 0.125 |  | 0.115 |  | 0.111 |  | 0.116 | 0.0935 |  |  | 0.0891 |  |  |  | 0.0898
18 | S121I | 0.103 | 0.113 |  | 0.0936 | 0.0971 | 0.0916 | 0.0919 |  | 0.112 | 0.101 | 0.0925 | 0.0893 |  | 0.044 | 0.115 |  | 0.0978 | 0.0976 | 0.0817
19 | S121K | 0.124 | 0.104 |  | 0.0948 | 0.135 |  | 0.118 |  | 0.143 | 0.123 | 0.111 | 0.112 | 0.113 | 0.108 | 0.114 | 0.138 |  |  | 0.0881
20 | M122I | 0.106 | 0.108 |  | 0.0765 | 0.112 | 0.0963 | 0.157 | 0.184 | 0.109 |  | 0.144 | 0.0867 | 0.132 | 0.0963 | 0.139 |  |  |  | 
21 | M122V | 0.117 | 0.116 |  | 0.129 |  | 0.0919 | 0.107 | 0.107 |  | 0.137 | 0.0992 | 0.0784 |  |  |  |  |  |  | 
22 | S123N | 0.116 | 0.0927 |  | 0.121 | 0.13 | 0.0737 |  | 0.108 |  | 0.105 | 0.115 | 0.0861 | 0.159 | 0.129 | 0.102 | 0.124 | 0.0929 |  | 
23 | V126C | 0.138 | 0.12 |  | 0.0805 | 0.108 |  | 0.12 |  |  |  |  |  | 0.092 | 0.0845 | 0.128 |  | 0.136 |  | 
24 | V126I | 0.108 | 0.118 |  | 0.0857 | 0.121 | 0.0067 | 0.0917 |  | 0.116 | 0.0966 | 0.0884 | 0.0898 | 0.0809 |  | 0.123 | 0.0747 | 0.134 |  | 0.0988
25 | S127I | 0.117 | 0.111 |  | 0.101 |  | 0.0851 | 0.108 | 0.126 | 0.121 |  | 0.0462 | 0.0989 |  | 0.109 | 0.128 | 0.127 | 0.109 | 0.112 | 0.102
26 | S127L | 0.129 |  | 0.136 |  |  | 0.108 |  | 0.142 | 0.135 | 0.0983 | 0.0352 | 0.0947 |  |  |  |  | 0.112 |  | 
27 | T129L | 0.0797 |  | 0.118 | 0.0992 | 0.0929 |  | 0.12 |  | 0.109 | 0.089 | 0.1 | 0.177 |  | 0.0872 |  | 0.107 | 0.102 |  | 
28 | S130E | 0.115 |  |  |  | 0.0594 |  | 0.0961 |  | 0.0893 | 0.0721 | 0.0809 |  |  |  |  |  |  | 0.0693 | 0.0711
29 | S130V | 0.124 | 0.101 |  |  | 0.126 |  | 0.103 | 0.132 | 0.104 | 0.0871 | 0.105 | 0.104 | 0.0975 |  |  |  | 0.104 |  | 
30 | C131M | 0.12 | 0.0809 |  | 0.0965 |  |  |  |  | 0.113 | 0.11 |  | 0.0922 | 0.118 |  | 0.076 | 0.0968 |  |  | 
